{"source": "PubChem BioAssay AID720506", "about": "(National Center for Advancing Translational Sciences (NCATS), 2013)", "note": "Values joined by “and” are separate entries in the source; they are usually repeats but may differ in a detail not shown here. Equal values may be shown once. In all, about 2,300 compounds went through this assay and about 95 (4%) were called active. This list was built around the results that the source calls inconclusive (neither active nor inactive); the mix of calls is not that of the screen. Calls come from the whole dose curve; as a rule, active = well fitted activation curve with a large enough effect; inconclusive = small, poorly fitted or top-dose-only effect; inactive = flat fitted curve, though single readings scatter. Where the call is inconclusive, the potency comes from a doubtful curve fit. Potency is the fitted concentration of half-maximal effect; tags give direction and shape of the fitted curve.", "data": [{"target": "D(3) dopamine receptor (Homo sapiens) (UniProt P35462)", "sequence (P35462 whole entry, looked up)": "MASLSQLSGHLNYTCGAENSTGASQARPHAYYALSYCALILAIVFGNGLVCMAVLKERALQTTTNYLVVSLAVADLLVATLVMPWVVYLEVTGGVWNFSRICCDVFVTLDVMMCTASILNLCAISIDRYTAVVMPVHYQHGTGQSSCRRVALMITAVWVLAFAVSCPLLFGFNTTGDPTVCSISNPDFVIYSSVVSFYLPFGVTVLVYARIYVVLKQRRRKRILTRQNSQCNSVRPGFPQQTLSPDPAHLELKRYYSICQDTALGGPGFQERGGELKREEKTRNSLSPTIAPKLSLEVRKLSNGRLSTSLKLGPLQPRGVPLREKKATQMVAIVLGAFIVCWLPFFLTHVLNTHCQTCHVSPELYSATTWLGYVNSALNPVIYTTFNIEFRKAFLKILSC", "assay": "qHTS of D3 Dopamine Receptor Agonist: D3 Dopamine Receptor B-arrestin Agonist Confirmatory Assay; note: nearly all actives have a fitted effect of over 70% in size;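 for activation: 100% = dopamine control response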", "conditions": "DiscoveRx D3 beta-arrestin cells, luminescence, 90 min; activation: at 76.9 µM (top of the series)", "summary_of_the_method": "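DiscoveRx D3 β-arrestin cells, plated overnight at 37 °C, received pinned test compounds with dopamine controls for 90 minutes at 37 °C. Detection reagent was then added for 30 - 60 minutes at room temperature, and luminescence was read.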", "values": [{"compound": "O=C(c1ccco1)N1CCN(Cc2ccc(Br)cc2)CC1", "Potency": "inconclusive: 31.6 µM [activator, partial curve, poor fit]"}, {"compound": "Cc1ccc(C)n1CCN1CCN(C(=O)c2ccco2)CC1", "Potency": "inactive"}, {"compound": "O=C(CCn1c(=O)[nH]c2ccccc2c1=O)NCCCN1CCN(c2cccc(Cl)c2)CC1", "Potency": "inactive"}, {"compound": "COCCOCC(O)CN1CCN(c2ccccc2)CC1", "note": "(centres undefined)", "Potency": "inactive"}, {"compound": "COc1cc(CCC(C)NCc2ccccc2)ccc1O", "note": "(centres undefined)", "Potency": "inactive"}, {"compound": "COc1cccc(NC(=O)CCN2CCN(c3ccccc3F)CC2)c1", "Potency": "inconclusive: 0.158 µM [activator, full curve, poor fit]"}, {"compound": "O=C(c1ccc(Br)o1)N1CCN(CCOc2ccccc2)CC1", "Potency": "inconclusive: 0.199 µM [activator, full curve, poor fit]"}, {"compound": "Cc1cccc(OCC(=O)Nc2ccc3c(c2)nc(CCN2CCN(c4ccccn4)CC2)n3C)c1", "Potency": "active: 28.2 µM"}, {"compound": "COc1cccc(C(C)NC(=O)Nc2ccccc2Cl)c1", "note": "(centres undefined)", "Potency": "inactive"}, {"compound": "COc1cccc(C2CC(c3ccccc3Cl)n3nc(N)nc3N2)c1", "note": "(centres undefined)", "Potency": "inactive"}, {"compound": "O=C(Nc1cccc(C(=O)N2CCOCC2)c1)c1ccc([N+](=O)[O-])cc1", "Potency": "inconclusive: 35.5 µM [activator, single point]"}, {"compound": "O=C(NCCN1CCN(c2ccccc2)CC1)C1CCN(S(=O)(=O)c2cccs2)CC1", "Potency": "inconclusive: 5.62 µM [activator, full curve, poor fit]"}, {"compound": "Cc1cccc(NC(=O)c2nc[nH]c2C(=O)NCc2ccccc2)c1", "Potency": "inactive"}, {"compound": "Cc1cc(C)c(/C=C2\\C(=O)Nc3ccccc32)[nH]1", "Potency": "inactive"}, {"compound": "CC(C)(C)n1ncc2c(=O)n(Cc3c(Cl)cccc3Br)cnc21", "Potency": "inactive"}, {"compound": "Cc1cccc(OCC(O)CN2CCN(c3ccccn3)CC2)c1C", "note": "(centres undefined)", "Potency": "inactive"}, {"compound": "O=[N+]([O-])c1ccc(O)c(-c2cc(C(F)(F)F)nc(-c3ccccc3)n2)c1", "Potency": "inconclusive: 1 µM [activator, full curve, poor fit]"}, {"compound": "COc1cccc(OCC(O)CN2CCN(c3ccccc3)CC2)c1", "note": "(centres undefined)", "Potency": "inconclusive: 1.12 µM [activator, full curve, poor fit] and inconclusive: 2.82 µM [activator, full curve]"}, {"compound": "CCNC(=O)C(=O)Nc1ccc([N+](=O)[O-])cc1", "Potency": "inactive"}, {"compound": "O=C(c1ccco1)N1CCN(C/C=C/c2ccccc2)CC1", "Potency": "inconclusive: 1 µM [activator, full curve]"}, {"compound": "O=C(c1ccco1)N1CCN(CCOc2ccccc2)CC1", "Potency": "inconclusive: 1.12 µM [activator, full curve]"}, {"compound": "CCCc1ccc(OCC(O)CN2CCN(c3ccccn3)CC2)cc1", "note": "(centres undefined)", "Potency": "active: 1.26 µM"}, {"compound": "COc1ccc([N+](=O)[O-])cc1NC(=O)CCN1CCN(c2ccccc2)CC1", "Potency": "inconclusive: 0.0501 µM [activator, full curve]"}, {"compound": "Cc1ccc(C(=O)CN2CCN(c3ccccn3)CC2)c(C)c1", "Potency": "inconclusive: 3.16 µM [activator, full curve]"}, {"compound": "COC(=O)C1CCN(Cc2cn(-c3ccccc3)nc2-c2ccc3c(c2)OCO3)CC1", "Potency": "inactive"}, {"compound": "Cc1cccc(C(=O)NC(=S)NNC(=O)c2ccc(Cl)cc2)c1", "Potency": "inactive"}, {"compound": "O=C(Nc1ccc(-c2nc3ccccc3o2)cc1)c1cc(-n2cnnc2)ccc1Cl", "Potency": "inconclusive: 50.1 µM [activator, partial curve, poor fit]"}, {"compound": "CSCCC(NC(=O)c1ccccc1Cl)C(=O)Nc1ccncc1", "note": "(centres undefined)", "Potency": "inactive"}, {"compound": "O=C(CCN1CCN(c2ccccc2)CC1)Nc1ccccc1F", "Potency": "inconclusive: 0.199 µM [activator, full curve]"}, {"compound": "C/C(O)=c1/ccc2cccc3nc(C)nc1c23", "Potency": "inconclusive: 10 µM [activator, full curve, poor fit]"}, {"compound": "OC(COCC1COc2ccccc2O1)CN1CCN(c2ccccc2F)CC1", "note": "(centres undefined)", "Potency": "inconclusive: 0.501 µM [activator, full curve]"}, {"compound": "COC(=O)C1CCN(Cc2nnc(-c3ccccc3)o2)CC1", "Potency": "active: 3.98 µM"}, {"compound": "COCCN(C(=O)c1ccc(COc2ccccc2)o1)c1c(N)n(CC(C)C)c(=O)[nH]c1=O", "Potency": "inactive"}, {"compound": "CCc1ccc(NC(=O)C(=O)NCCN2CCN(C(=O)c3ccco3)CC2)cc1", "Potency": "active: 5.01 µM"}, {"compound": "Fc1ccccc1N1CCN(CC2CC3C=CC2C3)CC1", "note": "(centres undefined)", "Potency": "inconclusive: 1.78 µM [activator, full curve, poor fit]"}, {"compound": "O=C(CC1SC(N2CCCC2)=NC1=O)Nc1ccc(C(=O)NCCOc2ccccc2F)cc1", "note": "(centres undefined)", "Potency": "inconclusive: 2 µM [activator, full curve]"}, {"compound": "CCCCN(CC)CCCNC(=O)CC1Oc2ccccc2NC1=O", "note": "(centres undefined)", "Potency": "inconclusive: 126 µM [activator, single point]"}, {"compound": "Oc1ccc(-c2csc(-c3cccnc3)n2)cc1O", "Potency": "active: 15.8 µM"}, {"compound": "CCOC(=O)C1(CCOc2ccccc2)CCN(CCCn2cccn2)CC1", "Potency": "inactive"}, {"compound": "O=C(O)Cc1sc(N/N=C\\c2ccncc2)nc1-c1ccccc1", "Potency": "inconclusive: 39.8 µM [activator, partial curve, poor fit]"}, {"compound": "c1ccc(Cc2noc(CN3CCN(CCOc4ccccc4)CC3)n2)cc1", "Potency": "inconclusive: 3.16 µM [activator, full curve]"}, {"compound": "Nc1ccc2[nH]ncc2c1", "Potency": "inconclusive: 44.7 µM [activator, partial curve, poor fit]"}, {"compound": "O=C(NCCN1CCN(c2ccccc2)CC1)c1ccc2c(c1)[nH]c(=S)n1c3ccccc3nc21", "Potency": "inconclusive: 3.16 µM [activator, full curve]"}, {"compound": "Oc1ccc(CCNc2c3ccccc3nc3ccccc23)cc1O", "Potency": "active: 11.2 µM"}, {"compound": "O=C(Nc1cccc(-c2nc3ccccc3[nH]2)c1)c1ccc(C(=O)Nc2cccc(-c3nc4ccccc4[nH]3)c2)cc1", "activation": "inconclusive: 30.3% [activator]"}, {"compound": "CCc1ccc(CN2CCN(c3ncccn3)CC2)cc1", "Potency": "inconclusive: 0.631 µM [activator, full curve]"}, {"compound": "Fc1ccc(CN2CCN(c3ncccn3)CC2)c(F)c1", "Potency": "inconclusive: 8.91 µM [activator, partial curve]"}, {"compound": "O=C1C[C@@H]2c3c(cccc3CN1Cc1ccc(F)cc1)C[C@@H](O)[C@H]2O", "Potency": "inactive"}, {"compound": "COc1ccc(NC(=O)CN2CCN(c3ccccn3)CC2)cc1Cl", "Potency": "inconclusive: 3.98 µM [activator, full curve]"}, {"compound": "COc1cccc(OC)c1OCC(O)CN1CCN(c2ccccc2F)CC1", "note": "(centres undefined)", "Potency": "inconclusive: 3.55 µM [activator, full curve, poor fit]"}, {"compound": "OC(COC(c1ccccc1)c1ccccc1)CN1CCN(c2ccccn2)CC1", "note": "(centres undefined)", "Potency": "active: 4.47 µM"}, {"compound": "Cc1noc(C)c1COc1ccc(C(=O)N(C)CCOc2ccccc2)cc1", "Potency": "inactive"}, {"compound": "Cc1cc(=O)oc(C)c1C(=O)N1CCN(Cc2ccc3c(c2)OCO3)CC1", "Potency": "inactive"}, {"compound": "Cc1cc(Cl)ccc1Oc1ncc(CN2CCN(c3ccccc3)CC2)s1", "Potency": "inconclusive: 28.2 µM [activator, partial curve, poor fit]"}, {"compound": "COc1ccc(OC)c(NC(=O)CCN2CCN(c3ccccc3)CC2)c1", "Potency": "inconclusive: 1.12 µM [activator, full curve]"}, {"compound": "O=C(O)CCSc1ccc([N+](=O)[O-])cc1[N+](=O)[O-]", "Potency": "inconclusive: 39.8 µM [activator, partial curve, poor fit]"}, {"compound": "CCS(=O)(=O)N1CCN(C(C)CCc2ccccc2)CC1", "note": "(centres undefined)", "Potency": "inconclusive: 22.4 µM [activator, partial curve]"}, {"compound": "O=C(NCC(c1ccco1)N1CCN(c2ccccc2F)CC1)C(=O)NC1CC1", "note": "(centres undefined)", "Potency": "inconclusive: 28.2 µM [activator, full curve]"}, {"compound": "CC(C(=O)N(C)Cc1ccccc1)N1CCN(C/C=C/c2ccccc2)CC1", "note": "(centres undefined)", "Potency": "inconclusive: 0.562 µM [activator, full curve, poor fit]"}, {"compound": "CCCCCCc1cc2cc(S(=O)(=O)c3ccc(F)c(Cl)c3)c(=O)oc2cc1O", "Potency": "active: 28.2 µM"}, {"compound": "O=C(CN1CCN(c2cccc(Cl)c2)CC1)Nc1ccc(S(=O)(=O)N2CCOCC2)cc1", "Potency": "inconclusive: 22.4 µM [activator, partial curve]"}, {"compound": "CCc1ccc2c(CC(=O)NNC(=O)c3ccncc3)coc2c1", "Potency": "inactive"}, {"compound": "O=C(NCCN1CCN(c2ccccc2)CC1)c1ccccc1F", "Potency": "inconclusive: 0.112 µM [activator, full curve, poor fit]"}, {"compound": "O=S(=O)(NCC(c1cccnc1)N1CCN(Cc2ccccc2)CC1)c1cc(F)ccc1F", "note": "(centres undefined)", "Potency": "inactive"}, {"compound": "O=C(NCCCN1CCN(c2ccccc2)CC1)Nc1ccccc1C(F)(F)F", "Potency": "inconclusive: 0.158 µM [activator, full curve]"}, {"compound": "O=C(c1ccco1)N1CCN(CC(O)COc2ccc3oc4ccccc4c3c2)CC1", "note": "(centres undefined)", "Potency": "active: 35.5 µM"}, {"compound": "O=C(CCN1CCN(c2ccccc2)CC1)Nc1ccccc1", "Potency": "inactive"}, {"compound": "CCCN(CC(=O)Nc1ccccc1C)C(=O)c1ccc2[nH]c3c(c2c1)CC(C)CC3", "note": "(centres undefined)", "Potency": "inactive"}, {"compound": "c1ccc(OCCN2CCN(Cc3nc(-c4ccc5c(c4)OCO5)no3)CC2)cc1", "Potency": "inconclusive: 0.631 µM [activator, full curve]"}, {"compound": "CCOC(=O)c1ccc(NC(=O)CN2CCN(c3ccccc3)CC2)cc1", "Potency": "inconclusive: 8.91 µM [activator, partial curve, poor fit]"}, {"compound": "O=C(CCc1nc2ccccc2c(=O)[nH]1)Nc1ccc(Cl)c(Cl)c1", "Potency": "inconclusive: 35.5 µM [activator, partial curve]"}, {"compound": "Cc1ccccc1CN1CCN(C(=O)c2ccco2)CC1", "Potency": "inconclusive: 12.6 µM [activator, partial curve]"}, {"compound": "CCN1CCc2c(sc(NC(=O)c3ccc(C(=O)c4ccccc4)cc3)c2C(N)=O)C1", "Potency": "inactive"}, {"compound": "COc1ccc(Oc2ncc(CN3CCN(c4ccccc4)CC3)s2)cc1", "Potency": "inconclusive: 20 µM [activator, partial curve, poor fit]"}]}]}
